In one assay the target is T1, Flag-tagged TFAM (UniProt Q00059).
T1 sequence: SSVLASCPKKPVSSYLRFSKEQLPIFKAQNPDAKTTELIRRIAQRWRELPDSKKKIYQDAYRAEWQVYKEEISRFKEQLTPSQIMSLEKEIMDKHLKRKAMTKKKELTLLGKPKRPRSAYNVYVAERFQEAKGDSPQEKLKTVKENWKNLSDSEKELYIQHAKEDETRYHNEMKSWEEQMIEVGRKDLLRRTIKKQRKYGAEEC
The assay can be described thus: pull-down; reverse: Flag-tagged TFAM held on anti-FLAG M2 magnetic beads, NEIL1-FL or NEIL1-Δ100 as prey; with and without DNA; eluted with 3X Flag peptide, SDS-PAGE; both purified.

Sequences of proteins named here, by UniProt entry; tags and fusion partners are left off. A change or cut given only in a name is not applied to a line headed by its entry. A line that says so, or that is headed by a name, gives the form on record, which may keep a tag or linker. Residues count along the entry.
UniProt Q96FI4: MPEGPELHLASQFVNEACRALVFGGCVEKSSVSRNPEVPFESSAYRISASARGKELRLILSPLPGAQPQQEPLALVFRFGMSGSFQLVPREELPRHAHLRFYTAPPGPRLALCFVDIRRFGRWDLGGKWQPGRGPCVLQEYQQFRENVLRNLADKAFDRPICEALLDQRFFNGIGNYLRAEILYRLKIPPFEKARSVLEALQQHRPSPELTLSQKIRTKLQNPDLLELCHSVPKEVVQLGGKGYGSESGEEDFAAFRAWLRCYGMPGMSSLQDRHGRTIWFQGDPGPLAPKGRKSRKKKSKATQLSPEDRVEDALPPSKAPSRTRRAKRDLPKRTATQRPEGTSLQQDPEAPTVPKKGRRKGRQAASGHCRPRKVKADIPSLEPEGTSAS
GST-tagged NEIL1 polypeptide, amino acids 289–390: residues 289-390 of Q96FI4
GST-tagged NEIL1 polypeptide, amino acids 289–349: residues 289-349 of Q96FI4
GST-tagged NEIL1 polypeptide, amino acids 312–390: residues 312-390 of Q96FI4
GST-tagged NEIL1 polypeptide, amino acids 312–349: residues 312-349 of Q96FI4

In assay [1] the target is GST-tagged NEIL1 polypeptide, amino acids 289–390 (human) (UniProt Q96FI4). The experiment in a line: far-Western, overlay or dot blot; 50 pmol NEIL1 polypeptides separated by SDS-PAGE, on PVDF, denatured in 6M guanidine HCl and refolded; incubated with purified TFAM overnight; detected with anti-TFAM antibody; both purified.
Assay [2] concerns the target GST-tagged NEIL1 polypeptide, amino acids 312–390 (human) (UniProt Q96FI4). The description is as above.
Assay [3] addresses GST-tagged NEIL1 polypeptide, amino acids 289–349 (human) (UniProt Q96FI4). The description is as above.
The target in assay [4] is full-length NEIL1 (NEIL1-FL), C-terminal His-tagged (human) (UniProt Q96FI4). The assay can be described thus: condition: only 300 mM NaCl, without DNA; 190 µM each; SEC-MALS; SEC-MALS-SAXS in line, NEIL1 and TFAM without DNA; 190 µM each; 25 mM HEPES pH 7.4, 300 mM NaCl, 5% glycerol, 1 mM DTT; both purified. A general note: Size exclusion chromatography separates by hydrodynamic size, large species first.

For assay [5], the target named is Flag-tagged, full-length NEIL1 (NEIL1-FL) (human) (UniProt Q96FI4). The experiment in a line: pull-down; Flag-tagged NEIL1-FL held on anti-FLAG M2 magnetic beads, TFAM as prey; 50 mM Tris-HCl pH 7.5, 10% glycerol, 50–300 mM NaCl/KCl; with and without 22-mer specific DNA or RNA, with and without Benzonase; 4°C; eluted with 3X Flag peptide, SDS-PAGE; both purified.
For assay [6], the target named is full-length NEIL1 (NEIL1-FL), C-terminal His-tagged (human) (UniProt Q96FI4). The experiment in a line: SEC; NEIL1 and TFAM mixed 1:1, without DNA; Superdex 200; 20 mM HEPES pH 7.5, 300 mM NaCl, 10% glycerol, 1 mM DTT; both purified.
Assay [7] concerns the target GST-tagged NEIL1 polypeptide, amino acids 312–349 (human) (UniProt Q96FI4). The experiment in a line: condition: 1 pmol/ml TFAM (methods); 10 pmol/ml; far-Western, overlay or dot blot; 50 pmol NEIL1 polypeptides separated by SDS-PAGE, on PVDF, denatured in 6M guanidine HCl and refolded; incubated with purified TFAM overnight; detected with anti-TFAM antibody; both purified.

These are yes or no findings as the source states them, for the method shown. Some binding calls cover weakened binding; strength is not graded here. For some assays here: Sequences can lack the tags named with a protein.

On to “full-length NEIL1 (NEIL1-FL), C-terminal His-tagged (from UniProt Q96FI4 1-390) (enzyme)”, for which the binding result with Flag-tagged TFAM is recorded as “binds weakly”.

B1: mitochondrial transcription factor A (TFAM) lacking the mitochondrial targeting sequence (natural protein, UniProt Q00059 43-246, looked up)
chain: T1 sequence
notes: theoretical MW 25.6 kDa; Printed domain limits: HMG-box A 43-122, linker 122-152, HMG-box B 152-222, C-terminal tail 222-246; Subcloned into pET30a from a full-length ORF plasmid; also called full-length TFAM monomer (lacking the N-terminal MTS); source: E. coli, purified (as Ngo et al., 2011)
As to B1, the binding result in assay [1] was “binds weakly”; in assay [2] it was “binds weakly”; in assay [3], “binds weakly”; in assay [4], “no binding”; in assay [5], “binds weakly”; in assay [6], “no binding (condition: 300 mM NaCl, without DNA)”. Moreover, the binding result in assay [7] is on record as “no binding”.
